Data on 94 sequences can be found in the supplement of paper PMC3334620.

Over roughly 33,000 sequences, “E-score (-0.5 to 0.5)” has its median near -0.054; the highest 2% begin near 0.35. The list shows a part of the results.

The target in this experiment is T1, Stb5 (UniProt P38699).
T1 sequence: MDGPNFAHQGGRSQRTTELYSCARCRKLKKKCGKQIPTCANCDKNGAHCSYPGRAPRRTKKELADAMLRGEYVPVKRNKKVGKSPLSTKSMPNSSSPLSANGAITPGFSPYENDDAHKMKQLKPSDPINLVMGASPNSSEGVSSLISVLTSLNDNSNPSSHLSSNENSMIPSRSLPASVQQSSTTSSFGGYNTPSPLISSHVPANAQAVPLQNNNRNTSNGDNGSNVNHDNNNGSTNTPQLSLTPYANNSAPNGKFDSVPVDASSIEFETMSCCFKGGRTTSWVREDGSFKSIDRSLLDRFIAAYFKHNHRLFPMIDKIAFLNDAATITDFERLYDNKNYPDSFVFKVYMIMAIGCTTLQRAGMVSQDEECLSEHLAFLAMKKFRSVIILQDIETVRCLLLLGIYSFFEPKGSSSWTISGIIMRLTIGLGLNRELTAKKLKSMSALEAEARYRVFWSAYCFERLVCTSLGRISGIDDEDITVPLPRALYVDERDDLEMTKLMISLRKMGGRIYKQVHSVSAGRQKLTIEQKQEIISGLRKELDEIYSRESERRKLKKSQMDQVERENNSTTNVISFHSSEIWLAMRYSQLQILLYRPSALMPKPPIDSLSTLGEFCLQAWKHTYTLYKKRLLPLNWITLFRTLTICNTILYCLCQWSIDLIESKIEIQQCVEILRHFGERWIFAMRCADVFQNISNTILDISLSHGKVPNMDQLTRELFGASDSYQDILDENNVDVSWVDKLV
Put plainly: PBM E-score (8-mer binding enrichment) (E-score (-0.5 to 0.5)); higher = stronger / more preferred TF binding; most listed sequences are background and not binding sites. The note with it: protein concentration: 200 nM; construct: GST-full length. A digest of the protocol:
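Each ungapped eight-base word and its reverse complement, pooled, received an E-score from the Universal PBM Analysis Suite. Underlying scans, normalised with masliner, recorded fluorescent anti-GST bound to GST-tagged yeast transcription factors. These were applied at about 100-200 nM to universal all-10-mer Agilent arrays double-stranded by primer extension.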
Take GCAACGAA: the “PBM E-score” value is -0.223. With ATTGTCTC the figure was -0.143; with CGCCATGA, -0.0191. Turning to TACTGTAA, the “PBM E-score” value was -0.0225.

In the case of TGAAACCA, the “PBM E-score” value is -0.0203.

In the case of CAACTCGA, the “PBM E-score” value is -0.107. In the case of AGTAGGCG it was -0.0333; in that of CTATAGTA, 0.142; in that of ACGACTGA, -0.163. Turning to ATTTCAAA, the “PBM E-score” value is -0.0839. With GGTGGGAA the figure was 0.0469; with CCTCCGCC, 0.223. With AATAGCTG, the “PBM E-score” value is -0.0948. For the sequence CACGCGCA, the “PBM E-score” value was 0.0401.

CGAGATGC: the “PBM E-score” value stood at 0.0367. On to ATCCTTGA, for which the “PBM E-score” value is -0.2.

As to AATTTCCG, the “PBM E-score” value is 0.238. With ATATCAGG, the “PBM E-score” value is -0.0889. On to ACCCTCAA, for which the “PBM E-score” value was -0.154.

On to GGGACCCA, for which the “PBM E-score” value was -0.0663. With ATTATTTC the figure was 0.0326. With AGGCCGTG the figure was 0.212; with AAGTAATT, -0.096; with CACAACGC, 0.0974. With CCTCCCAG the figure was -0.176. With GAATGCGA, the “PBM E-score” value came to 0.00809. In the case of CTATCCAG it was -0.0852.

As to AGTAGCTA, the “PBM E-score” value was -0.139.

GGTAGCAC: the “PBM E-score” value came to 0.0271. With GTTTCGGA the figure was 0.14. In the case of AGCATACA it was -0.0693. As to CTCAAGCC, the “PBM E-score” value was -0.0953. With CGGTGGAG the figure was 0.092. Take GAGAGAGC: the “PBM E-score” value is -0.0519.

As for CGGCCGAA, the “PBM E-score” value is 0.122. With AGCCTTAT, the “PBM E-score” value is -0.0816. Take GGGATCAA: the “PBM E-score” value came out at 0.187. For GACGGACA, the “PBM E-score” value amounted to 0.372. In the case of AGCGTTCC it was -0.147; in that of CTATTGAG, -0.239; in that of GATTAATC, 0.141.

Regarding CATCCTCG, the “PBM E-score” value is -0.0586. In the case of GTCGCTAA it was -0.0706.

Take ATATTATG: the “PBM E-score” value was -0.108. Take ATATGCAA: the “PBM E-score” value was -0.088. On to AACTATTA, for which the “PBM E-score” value was -0.111. Take CCAACGAG: the “PBM E-score” value was -0.155. In the case of CTGGTCCC it was -0.1; in that of ACTTAATG, 0.0679; in that of ATTTTTGA, -0.101. For the sequence AAGTGGTA, the “PBM E-score” value was -0.0407. With AAGAAATG the figure was -0.0985; with CCTCACCA, -0.184; with AGGGCTCG, -0.195. With ACCGAGGG the figure was 0.0676. In the case of CCCGGGTC it was 0.352. As to CGGGTAAA, the “PBM E-score” value was 0.129.

As to AGCGCGGC, the “PBM E-score” value amounted to 0.189.

For the sequence CTACTCTA, the “PBM E-score” value was -0.193. For the sequence ATTTGGTA, the “PBM E-score” value was -0.0383. In the case of CGATTAAA it was 0.0329; in that of GATCTGAC, 0.00731; in that of CATGATAA, -0.0437. With CGGCTCAG the figure was 0.186; with TGTAGACA, -0.124; with ACGCATAG, -0.111. In the case of ATCGTGTA it was -0.154. In the case of CTCGGAAC, the “PBM E-score” value was 0.0193. For CTGTTCTA, the “PBM E-score” value is 0.00922. With ACGCATCT the figure was -0.0683; with GCATGTCC, 0.0132; with CAGTCGCA, -0.00139. Take ACCGAATC: the “PBM E-score” value was found to be 0.227. For the sequence ACAAGCGC, the “PBM E-score” value stood at 0.112.

On to CTGCCACC, for which the “PBM E-score” value came out at 0.0336.

With GGGACCAC, the “PBM E-score” value came to 0.115.

For AGGTACTG, the “PBM E-score” value is -0.268.

On to AGCCGATG, for which the “PBM E-score” value was 0.132. Turning to AAATTAAC, the “PBM E-score” value worked out at 0.0536. For the sequence ACGGAGAT, the “PBM E-score” value was determined as 0.403. Consider ATTAGACA, for which the “PBM E-score” value is -0.176.

On to TTTCGAAA, for which the “PBM E-score” value is -0.308. In the case of CCTCGTTC it was -0.0228; in that of TATTACGA, 0.103. With ATCAAACA the figure was -0.234; with AATCCCAA, 0.0066. In the case of ATATTGAT it was -0.0533. As to CGGGGCCA, the “PBM E-score” value stood at 0.351.

As to CACACCTA, the “PBM E-score” value was 0.0648. Take ACGCATAT: the “PBM E-score” value was -0.0932. On to CAATTATG, for which the “PBM E-score” value came out at 0.161.

As to ACTGGCAT, the “PBM E-score” value is -0.231.

For the sequence ACTGTCCG, the “PBM E-score” value is 0.144.

For TACAACAA, the “PBM E-score” value was -0.0815.
